Results from IntAct's records for PubMed 21179087.

B1: Myeloid differentiation primary response protein MyD88 (Homo sapiens), Q99836-1 (parent)
chain: MAAGGPGAGSAAPVSSTSSLPLAALNMRVRRRLSLFLNVRTQVAADWTALAEEMDFEYLEIRQLETQADPTGRLLDAWQGRPGASVGRLLELLTKLGRDDVLLELGPSIEEDCQKYILKQQQEEAEKPLQVAAVDSSVPRTAELAGITTLDDPLGHMPERFDAFICYCPSDIQFVQEMIRQLEQTNYRLKLCVSDRDVLPGTCVWSIASELIEKRCRRMVVVVSDDYLQSKECDFQTKFALSLSPGAHQKRLIPIKYKAMKKEFPSILRFITVCDYTNPCTKSWFWTRLAKALSLP

Variants of: B1
Details: with irak1_human IRAK1, P51617

effect of a mutation on the interaction | Variant
increasing interaction strength | M219T
decreasing interaction strength | P265L
disrupting interaction strength | T287P
increasing interaction strength | S209R
increasing interaction strength | S224N
